Laboratory results reported in PubChem BioAssay AID1508642 (National Center for Advancing Translational Sciences (NCATS), 2021).
The campaign covered roughly 43,000 compounds. About 200 (0.47%) were called active. About 12% were inconclusive and are not listed. Calls come from the whole dose curve; as a rule, active = well fitted cell-killing curve with a large enough effect; inconclusive = small, poorly fitted or top-dose-only effect, or effect the other way; inactive = flat fitted curve, though single readings scatter. Some of the results follow.

Assay: Cell viability qHTS assay in S16 Pmp22-F2sN cells; note: nearly all actives have a fitted effect of over 65% in size
Conditions: S16 Pmp22-F2sN Schwann cells (luciferase reporters placed in the Pmp22 gene) viability, CellTiter-Glo, 24 h; series mostly up to 57.5 µM; activity change, negative = cytotoxicity: at the top concentration
Procedure, shortened: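 CellTiter-Glo counter-screen, qHTS, 1536-well. Cells: S16(c9) Pmp22-F2sN, 500-1,000/well in DMEM + 10% FBS. Cpd 23 nL pin transfer, 24 h, 37C/5% CO2. Read: luminescence, CCD imager.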
% is set by controls: 0 for no effect and ±100 for the full control effect.

| Structure (SMILES) | activity change, negative = cytotoxicity |
| --- | --- |
| CCOc1ccccc1CNC(=O)CCn1c(=O)c2cccn2c2ccc(F)cc21 | inactive: 6.02% |
| Cc1ccc(CNc2nc(-c3ccco3)nn2S(C)(=O)=O)cc1 | inactive: -0.429% |
| COc1ccc(Cl)cc1-n1nnc(-c2nc(-c3ccccc3)no2)c1C | inactive: 2.69% |
| Cn1c(SCC(=O)Nc2ccccc2)nnc1-c1ccccc1 | inactive: -11.2% |
| COc1ccc(-c2nc3cc(C(C)C)ccc3o2)cc1NC(=O)c1ccccc1[N+](=O)[O-] | inactive: 0.999% |
| COc1ccc(C)cc1NC(=O)CN1c2ccccc2S(=O)(=O)c2ccccc21 | inactive: -5.31% |
| Cc1nnc(N2C(=O)c3oc4ccccc4c(=O)c3C2c2ccc(C(C)(C)C)cc2)s1 (configuration not stated) | inactive: -1.05% |
| Cc1ccc(NC(=O)CCOc2ccccc2)cc1 | inactive: 2.98% |
| COc1ccccc1N1CCN(C(=O)Cn2c(=O)n3nc(-c4ccc(C)cc4)nc3c3ccccc32)CC1 | inactive: 1.18% |
| COc1ccc(NC(=O)c2cccc(N3CCCS3(=O)=O)c2)cc1OC | inactive: 5.86% |
| COC(=O)c1ccc(NC(=O)CCS(=O)(=O)c2ccc(Br)s2)cc1 | inactive: -0.539% |
| Cc1nc(N2CCCC2)ncc1C(=O)NCc1cccc(Cl)c1 | inactive: 5.02% |
| CCCN(Cc1cccs1)C(=O)Nc1cc(Cl)ccc1C | inactive: 5.88% |
| Cc1nn(CC(=O)NCc2ccc(F)cc2)c2ccccc12 | inactive: 9.09% |
| Cc1ccc2[nH]c3c(=O)n(CC(=O)NCc4ccco4)ncc3c2c1 | inactive: 1.57% |
| COc1ccc(Cl)cc1NC(=O)Cn1ncc2c3ccccc3n(C)c2c1=O | inactive: 0.57% |
| CCOC(=O)c1cccc(NC(=O)CCCn2nc(C)c3c(C)n(-c4ccccc4)nc3c2=O)c1 | inactive: 1.36% |
| CC(=O)Nc1ccc(NC(=O)C2CCN(c3c(NC(C)=O)c(C)nn3-c3ccccc3)CC2)cc1 | inactive: 6.64% |
| CCOC(=O)c1c(C)n(-c2ccccc2)c2ccc(OC(=O)c3ccccc3NC(=O)C(C)C)cc12 | inactive: -5.51% |
| CCOC(=O)c1ccc2nc(C)cc(Nc3cccc(C(=O)O)c3)c2c1 | inactive: -4.61% |
| O=C(NCc1ccc(Cl)cc1)c1ccc2c(Cl)c3c(nc2c1)CCCC3 | inactive: 20.9% |
| Cc1ccc(C)c(N2CCN(C(=O)CCC(=O)Nc3ccc4nc(N5CCCCC5)cc(C)c4c3)CC2)c1 | inactive: -22.9% |
| Cc1ccc(OCCSc2nnc(-c3cccs3)o2)cc1Cl | inactive: 2.48% |
| CC(=O)Nc1ccc(NC(=O)C2CCCN(S(=O)(=O)c3ccc4c(c3)CCCC(=O)N4)C2)cc1 (configuration not stated) | inactive: 7.86% |
| Cc1cc(N2CCN(c3cccc(C)c3C)CC2)n2cnnc2n1 | inactive: -16.6% |

| Structure (SMILES) | activity change, negative = cytotoxicity |
| --- | --- |
| CCOC(=O)c1cnn(-c2ccc(C(=O)Nc3ccc(OC(F)(F)F)cc3)cc2)c1N | inactive: -0.71% |
| CCCCN(C)CCNC(=O)c1ccc(Cn2c(=O)[nH]c3cc(OC)c(OC)cc3c2=O)cc1 | inactive: -0.235% |
| Cc1cccc(NC(=O)Nc2ccc(F)cc2)n1 | inactive: 3.27% |
| Cc1ccc(N(CC(=O)NCCc2ccccc2C)S(=O)(=O)N(C)C)cc1 | inactive: 0.845% |
| COc1ccccc1CNC(=O)c1cccc(N2CCCS2(=O)=O)c1 | inactive: 4.2% |
| CCOC(=O)c1ccc(NC(=O)C2CC(=O)NC(=Nc3ccc(C)c(C)c3)S2)cc1 (configuration not stated) | inactive: 3.58% |
| COc1ccccc1CNC(=O)Cn1c(=O)oc2cc(S(=O)(=O)N3CCCC3)ccc21 | inactive: -4.75% |
| CCc1nc2nc(C)cc(Nc3cc(Cl)ccc3C)n2n1 | inactive: -5.19% |
| COc1ccc(-c2noc(N(c3ccc(F)c(Cl)c3)c3nc(-c4ccc(OC)c(OC)c4)no3)n2)cc1OC | inactive: 3.49% |
| COc1cc(-c2nc(S(=O)(=O)c3ccc(Br)cc3)c(N3CCOCC3)o2)cc(OC)c1OC | inactive: -3.39% |
| COc1ccc(Br)cc1C(=O)Nc1cccc2ccc(C)nc12 | inactive: 0.204% |
| CCOc1ccc(CCNC(=O)CCc2c(C)nc3c(c(C)nn3-c3ccc(C)c(C)c3)c2C)cc1 | inactive: -12.8% |
| COc1ccc(Nc2nc(-c3cccc(Cl)c3)c3c(n2)-c2ccccc2OC3)cc1 | inactive: 1.78% |
| CCOc1ccccc1CNC(=O)Cc1ccc(NC(=O)N2CCCCc3ccccc32)cc1 | inactive: 2.88% |
| CCOc1ccc(NC(=O)CSc2nc3ccsc3c(=O)n2C(C)CC)cc1 (configuration not stated) | inactive: 0.327% |
| CCOc1cccc(Nc2nn(-c3ccc(OC(F)(F)F)cc3)nc2C(C)=O)c1 | inactive: 0.25% |
| CCOC(=O)c1cnc2c(C)c(Cl)ccc2c1NCCc1ccc(OC)c(OC)c1 | inactive: 15.2% |
| Cc1cccc2c1-c1sc(C(=O)N3CCN(c4ccccc4)CC3)cc1CO2 | inactive: -1.99% |
| COc1ccc(-c2noc(N3CCC(C(=O)N4CCN(c5ccccc5OC)CC4)CC3)n2)cc1 | inactive: -14.3% |
| CCCCNS(=O)(=O)c1ccc2nc(-c3cccnc3)cc(C(=O)NCCCOC(C)C)c2c1 | inactive: 1.46% |
| Cc1cccc(Cn2cc3c(=O)n(CC(=O)Nc4c(C)cccc4C)nc-3c3cc(F)ccc32)c1 | inactive: 9.82% |
| Cc1c(Cl)cccc1NC(=O)CCCn1nc(C)c2sc3ccccc3c2c1=O | inactive: 9.7% |
| Cc1ccc(NC(=O)C2CCN(S(=O)(=O)c3c(C)noc3C)CC2)cc1 | inactive: -0.683% |
| CC1(C)CC(=O)c2cc(-c3nc(-c4ccccc4)cs3)c(=O)[nH]c2C1 | inactive: 7.71% |
| CC(C)Sc1nc2sc3c(c2c(=O)n1Cc1ccccc1)CCCC3 | inactive: 25.1% |

| Structure (SMILES) | activity change, negative = cytotoxicity |
| --- | --- |
| Cc1cc(NC(=O)C(C)(C)C)cc(-c2nc3ncccc3o2)c1O | inactive: 8.41% |
| Cc1cc(NC(=O)c2cnc3c(-c4ccccc4)c(C)nn3c2C)ccc1Br | inactive: 8.14% |
| Cc1cccc(N2CCN(C(=O)CN3C(=O)COc4ccc(S(=O)(=O)N5CCCC5)cc43)CC2C)c1 (configuration not stated) | inactive: 7.35% |
| COc1ccc(OCC(=O)NCC(c2ccc(OC)cc2)N2CCOCC2)cc1 (configuration not stated) | inactive: 12.8% |
| COc1ccc(-c2c(C)c3ccc(O)c(CN4CCCC4)c3oc2=O)cc1 | inactive: 4% |
| COc1cccc(CNCCSc2nnnn2-c2ccccc2)c1OC | inactive: -0.0805% |
| CCc1c(CN2CCN(c3ccccc3F)CC2)csc1C | inactive: 3.88% |
| CCn1c(SCC(=O)c2ccccc2)nnc1-c1cccc(Cl)c1 | inactive: -15.2% |
| Cc1ccc(/C=C/c2onc(C)c2S(=O)(=O)N2CCC(C(=O)NCc3ccc(OC(C)C)cc3)CC2)cc1 | inactive: 2.44% |
| COc1ccc(CC(=O)NC2CC(=O)N(c3ccc(C)c(C)c3)C2)cc1OC (configuration not stated) | inactive: 1.57% |
| O=C(Cn1c(=O)oc2cc(S(=O)(=O)N3CCCCC3)ccc21)NCc1ccc(F)cc1 | inactive: 2.23% |
| CCc1ccc(NC(=O)CSc2ncc(S(=O)(=O)c3cc(C)ccc3C)c(=O)[nH]2)cc1 | inactive: 5.89% |
| CCOC(=O)C(Cc1ccccc1)NC(=O)CCc1c(C)nc2c(c(C)nn2-c2ccc(C)c(C)c2)c1C (configuration not stated) | inactive: 0.435% |
| COC(=O)c1ccccc1NC(=O)C1CCCN(c2nnc(C)c3c(C)n(-c4ccccc4)nc23)C1 (configuration not stated) | inactive: 11.8% |
| O=C(CN1C(=O)CCc2cc(S(=O)(=O)N3CCCCC3)ccc21)NCc1ccc(Cl)cc1 | inactive: -17.2% |
| Cc1cccc2sc(N(Cc3cccnc3)C(=O)C3COc4ccccc4O3)nc12 (configuration not stated) | inactive: 0.445% |
| Cc1ccc(CNC(=O)CN2C(=O)C3(SCC(=O)N3c3ccc(F)c(F)c3)c3ccccc32)cc1 (configuration not stated) | inactive: -1.36% |
| COc1ccc(-c2nc(Cn3c(SCc4ccccc4F)nc4cccnc43)c(C)o2)cc1 | inactive: -7.48% |
| Cc1cccc(S(=O)(=O)c2cn(C)c3cc(N4CCC(C)CC4)c(F)cc3c2=O)c1 | inactive: 0.216% |
| CCC(=O)N1c2ccc(S(=O)(=O)CCC(=O)NCc3cccc(OC)c3)cc2CC1C (configuration not stated) | inactive: 13.9% |
| CC(=O)Nc1ccc(NC(=O)c2cc(-c3ccc4c(c3)OCCO4)on2)cc1 | inactive: 14.3% |
| CCc1ccc(N(CC)C(=O)Cn2cnc3sc(C)c(S(=O)(=O)N4CCN(c5ncccn5)CC4)c3c2=O)cc1 | inactive: -0.0756% |
| CCCOc1ccccc1C1C(C(=O)Nc2ccccc2)=C(C)Nc2nnnn21 (configuration not stated) | inactive: -15.4% |
| CCCC1=Nc2cc(C(=O)NCCOC)ccc2Sc2ccccc21 | inactive: -6.67% |
| Cc1ccc2onc(CC(=O)N3CCN(c4ccccc4)CC3)c2c1 | inactive: -2.42% |

| Structure (SMILES) | activity change, negative = cytotoxicity |
| --- | --- |
| CCOc1ccc(NC(=O)C(C)n2c(=O)cc(C)c3c(C)nn(-c4ccccc4)c32)cc1 (configuration not stated) | inactive: 0.819% |
| N#C/C(=C\c1cc(Br)c(O)c(Br)c1)c1nc2ccccc2c(=O)[nH]1 | inactive: 18.4% |
| CCc1ccc(OCC(=O)Nc2ccc3c(c2)c2ccccc2n3CC)c(Br)c1 | inactive: -14.5% |
| O=C(NCc1ccccc1Cl)c1nnc(Cc2ccc(Cl)cc2)o1 | inactive: -0.626% |
| Cc1cccc(CSc2ccc(-c3cccs3)nn2)c1 | inactive: -8.99% |
| COc1ccc(-c2noc(CSc3nnc(C)n3-c3ccc(C)c(C)c3)n2)c(OC)c1 | inactive: -23.4% |
| COc1ccc(-c2nc(SCC(=O)NCCc3ccccc3)n[nH]2)cc1 | inactive: 0.561% |
| Cc1ccc(CCNC(=O)CCn2nc(-c3ccc(C)cc3)ccc2=O)cc1 | inactive: -5.93% |
| COC(=O)c1ccc2c(=O)n(CCCCCC(=O)N3CCN(c4ccc(Cl)cc4)CC3)c(=O)[nH]c2c1 | inactive: -4.44% |
| COc1cccc(C(=O)n2nc(-c3cccnc3)nc2NCc2ccc(F)cc2)c1 | inactive: 7.45% |
| CCN(CC)CCSc1nnc2c3cc(F)ccc3n(CC)c2n1 | inactive: -8.56% |
| Oc1c(C(c2ccccc2F)N2CCCC2)sc2nc(-c3ccco3)nn12 (configuration not stated) | inactive: 16.5% |
| O=C(NCCc1ccccc1)c1ccc(CS(=O)(=O)c2ccc(Cl)cc2)o1 | inactive: -4.69% |
| COc1ccccc1CNC(=O)Cn1c(=O)nc(-c2ccccc2)c2ccccc21 | inactive: 6.56% |
| CCCSc1nnc2c(n1)OC(c1cccs1)Nc1ccc(Br)cc1-2 (configuration not stated) | inactive: 1.76% |
| CN(C(=O)CSc1nc2ccccc2n1Cc1ccccc1C#N)c1ccccc1 | inactive: -11.1% |
| CCOc1ccc(-c2nc3cc(NC(=O)COc4cccc(C)c4)ccc3o2)cc1 | inactive: 0.64% |
| O=c1c2sc3ccccc3c2n(Cc2ccc(F)cc2Cl)c(=O)n1Cc1ccccc1 | inactive: -6.1% |
| CCOc1ccc(-n2c(=O)c3c(C)c(C(=O)N(C)C)sc3n(Cc3cc(C)ccc3C)c2=O)cc1 | inactive: 2.15% |
| Cc1ccc(S(=O)(=O)C(CNC(=O)C(=O)NCc2ccc(Cl)cc2)c2ccco2)cc1 (configuration not stated) | inactive: -1.76% |
| CCOC(=O)c1ccc(-c2ccc(/C=C(\C#N)C(=O)Nc3ccc(C)cc3)o2)cc1 | inactive: -4.25% |
| COCC(=O)Nc1c(C(=O)Nc2ccc(C)cc2)oc2ccccc12 | inactive: 8.05% |
